PubChem BioAssay AID1476 (National Center for Advancing Translational Sciences (NCATS), 2009)
Screen size: about 200,000 compounds; about 4,500 (2.2%) were called active. The inconclusive results got no clear call from the source; some entries with a clear call stand among them for comparison. Calls come from the whole dose curve; as a rule, active = well fitted inhibition curve with a large enough effect; inconclusive = small, poorly fitted or top-dose-only effect, or effect the other way; inactive = flat fitted curve, though single readings scatter. Potencies of inconclusive entries are doubtful fits and often do not repeat.

biological target: Cruzipain (Trypanosoma cruzi) (UniProt P25779); experiment: qHTS Assay for Promiscuous and Specific Inhibitors of Cruzain (without detergent); conditions: purified cruzain, Z-FR-AMC fluorescence, no detergent; note: nearly all actives have a fitted effect of over 40% in size;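 for max response, negative = inhibition: plate controls were enzyme without inhibitor for no effect and buffer without enzyme for full effect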
Outline: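 Detergent-free condition (0.00005% Triton X-100) in acetate buffer pH 5.5 with DTT. 1.5 nM enzyme and compound were pre-mixed 15 min, then 2 uM Z-FR-AMC substrate added; reaction progress from fluorescence change between first and third reads (60 s).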
Potency is the fitted concentration of half-maximal effect; tags give direction and shape of the fitted curve.

Sequence of UniProt P25779 (P25779 whole entry, looked up): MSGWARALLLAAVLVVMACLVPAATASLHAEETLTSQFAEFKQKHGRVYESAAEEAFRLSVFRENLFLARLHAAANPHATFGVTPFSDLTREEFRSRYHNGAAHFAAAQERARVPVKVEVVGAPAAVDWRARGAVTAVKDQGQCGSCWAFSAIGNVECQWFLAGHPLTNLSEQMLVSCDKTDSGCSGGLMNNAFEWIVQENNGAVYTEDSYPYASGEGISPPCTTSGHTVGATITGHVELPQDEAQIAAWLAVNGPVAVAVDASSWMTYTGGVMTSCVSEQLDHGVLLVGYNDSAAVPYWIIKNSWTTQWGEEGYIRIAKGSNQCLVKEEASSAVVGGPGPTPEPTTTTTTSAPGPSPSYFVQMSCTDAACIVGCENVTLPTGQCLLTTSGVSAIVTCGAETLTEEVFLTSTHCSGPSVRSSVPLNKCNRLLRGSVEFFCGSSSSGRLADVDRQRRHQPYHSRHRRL

SMILES	Potency	max response, negative = inhibition
Cc1nn(-c2ccccc2)c(Cl)c1/C=N/Nc1ccc(S(=O)(=O)Nc2ccccc2C(=O)O)cc1[N+](=O)[O-]	inconclusive: 3.98 µM [activator, partial curve]	–
COC(=O)Cc1ccc(NC(=O)c2ccc(C)c(C)c2)cc1	inconclusive: 5.01 µM [inhibitor, single point]	–
O=C(N/N=C/C=C/c1ccco1)c1cccc([N+](=O)[O-])c1	inconclusive: 39.8 µM [inhibitor, single point]	–
COc1ccc(C(=O)c2c(N)c(-c3nc(-c4ccccc4)cs3)c3ccccn23)cc1	active: 7.94 µM	–
Cc1cc(NC(=O)CSc2nc3ccccc3s2)no1	active: 31.6 µM	–
Cc1nc(-c2ccccc2)sc1-c1nc(-c2ccncc2)ncc1S(=O)(=O)c1ccccc1	inconclusive: 39.8 µM [activator, single point]	–
O=C(CCS(=O)(=O)c1ccccc1)Nc1ccc(-c2nc3ccccc3s2)cc1	inconclusive: 39.8 µM [inhibitor, single point]	–
Cc1cccc(N2C(=O)/C(=C/c3ccc(CN(CCC#N)S(C)(=O)=O)o3)C(=O)NC2=S)c1	inconclusive: 39.8 µM [activator, single point]	–
CC(=O)Nc1ccc(-c2cn3cc(C)ccc3n2)cc1	inconclusive: 25.1 µM [inhibitor, single point]	–
CCN1CCN(C(=O)CCc2ccc(S(=O)(=O)NCCc3ccccc3)cc2)CC1	–	inactive: -5.81%
COc1ccc(N2CCN(C(=O)CCc3c(C)nc4cc(-c5cccc(F)c5)nn4c3C)CC2)cc1	–	inactive: 4.65%
COCCNC(=O)c1cn(C)c2ccc(S(=O)(=O)N(C)C3CCCCC3)cc2c1=O	inconclusive: 31.6 µM [activator, single point]	–
CC(=O)N1CCc2c(sc3c2c(=O)n(-c2ccccc2)c(=O)n3Cc2cccc(C(F)(F)F)c2)C1	inconclusive: 25.1 µM [activator, partial curve]	–
COc1ccc(Br)cc1C1CC(=O)N2CN(Cc3ccccc3)CSC2=C1C#N (stereo not drawn)	active: 31.6 µM	–
CCc1ccc(NC(=O)CCc2c(C)n(C)c3cc(-c4ccccc4C)nn3c2=O)cc1	–	inactive: 5.75%
Cc1ccc(CCNS(=O)(=O)c2ccc3c(c2)CCN3C(=O)CCC(=O)O)cc1	inconclusive: 39.8 µM [activator, single point]	–
O=C(Cc1ccc(F)cc1)Nc1cccc(-c2nc3cccnc3s2)c1	–	inactive: -0.139%
COc1ccccc1N1CCN(c2nc3ccccc3nc2C(C#N)C(=O)OC(C)C)CC1 (stereo not drawn)	inconclusive: 39.8 µM [inhibitor, single point]	–
